Experimental data: publication PMC4336329 (PLoS ONE, 2015)
Screen size: about 310,000 compounds; about 2,200 (0.71%) showed an effect of 50% or more. The effect is printed as a negative number. Some of the results follow.

target: human ether-à-go-go-related gene (hERG) potassium channel (human, UniProt Q12809); experiment: primary screen, population patch clamp on CHO cells stably expressing hERG
Sequence (Q12809 whole entry, looked up): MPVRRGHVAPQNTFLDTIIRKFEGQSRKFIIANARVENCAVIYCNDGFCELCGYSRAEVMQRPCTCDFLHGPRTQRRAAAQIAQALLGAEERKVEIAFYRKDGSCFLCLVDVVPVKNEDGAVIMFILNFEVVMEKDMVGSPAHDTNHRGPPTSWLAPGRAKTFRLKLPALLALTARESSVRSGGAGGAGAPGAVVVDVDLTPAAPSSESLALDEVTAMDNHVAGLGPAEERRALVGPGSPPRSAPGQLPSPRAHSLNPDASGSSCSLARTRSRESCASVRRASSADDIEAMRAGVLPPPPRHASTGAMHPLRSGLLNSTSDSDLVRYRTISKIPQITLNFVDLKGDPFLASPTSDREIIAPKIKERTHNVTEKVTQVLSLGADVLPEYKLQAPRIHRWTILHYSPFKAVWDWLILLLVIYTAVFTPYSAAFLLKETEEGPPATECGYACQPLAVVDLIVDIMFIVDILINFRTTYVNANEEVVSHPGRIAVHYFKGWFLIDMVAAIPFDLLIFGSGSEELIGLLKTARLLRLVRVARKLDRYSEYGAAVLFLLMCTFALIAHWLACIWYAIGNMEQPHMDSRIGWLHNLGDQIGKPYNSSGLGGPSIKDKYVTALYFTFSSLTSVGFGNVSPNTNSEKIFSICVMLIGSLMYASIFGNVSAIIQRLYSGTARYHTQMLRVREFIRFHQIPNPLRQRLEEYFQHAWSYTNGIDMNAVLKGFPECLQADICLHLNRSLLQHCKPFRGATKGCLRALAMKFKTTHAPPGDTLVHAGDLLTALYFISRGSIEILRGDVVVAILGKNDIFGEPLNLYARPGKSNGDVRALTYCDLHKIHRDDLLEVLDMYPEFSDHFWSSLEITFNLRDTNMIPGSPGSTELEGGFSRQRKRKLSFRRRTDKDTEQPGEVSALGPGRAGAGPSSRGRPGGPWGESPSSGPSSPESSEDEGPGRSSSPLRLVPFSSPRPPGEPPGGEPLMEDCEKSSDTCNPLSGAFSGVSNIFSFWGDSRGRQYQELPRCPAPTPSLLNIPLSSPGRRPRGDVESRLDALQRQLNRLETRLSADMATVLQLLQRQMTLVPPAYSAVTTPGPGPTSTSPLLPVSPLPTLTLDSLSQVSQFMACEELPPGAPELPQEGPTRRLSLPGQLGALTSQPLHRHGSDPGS

| Compound | hERG current change (%, negative = inhibition) at 1uM [%] |
| --- | --- |
| C=CCn1c(=O)c2ccccc2n2c(SCC(=O)Nc3sc(C(=O)N(CC)CC)c(C)c3C(=O)OCC)nnc12 | -1.5 |
| CC12CC(c3ccccc3O1)C(C(=O)N1CCOCC1)C(=O)N2 (centres unmarked) | 0.187 |
| O=C(CN1CCN(S(=O)(=O)c2ccccc2)CC1)NCc1ccccc1 | 15.2 |
| CCCOc1nc2c(c(=O)n(C)c(=O)n2C)n1CCC | 14.6 |
| Cn1c(=O)c2ncn(CC(=O)NCCC3=CCCCC3)c2n(C)c1=O | 9.17 |
| C/C=C\C=C\C(=O)N1CC2(CC(c3cccc(NC(=O)CC(c4ccccc4)c4ccccc4)c3)=NO2)C[C@H]1C(N)=O (some centres unmarked) | -0.331 |
| Cc1c(Cl)cccc1NC(=O)CCN1CCOCC1 | 22.1 |
| Oc1ccc(/C=N/n2cc(-c3ccccc3)[nH]c2=S)cc1 | 7.7 |
| CCCCCCNc1c([N+](=O)[O-])c(=O)sc2ccccc12 | 14.1 |
| Cc1ccc(S(=O)(=O)N2CCCC(C(=O)NCc3ccco3)C2)cc1Cl (centres unmarked) | 6.95 |
| Cc1cc(C)c2oc(C(=O)NCc3ccccc3)cc(=O)c2c1 | 17 |
| O=c1[nH]c(O)c(N=Nc2ccc(SC(F)F)cc2)c(=O)[nH]1 | 4.58 |
| Cc1ccc(NS(=O)(=O)c2ccc(NS(=O)(=O)c3cccs3)cc2)cc1 | 18 |
| C#CCOCCOCCOCCNc1nc(N2CCOCC2)nc(N2CCN(C(=O)CCCCCCCCCCNC(=O)Cn3cc(CCCCCN)nn3)CC2)n1 | 14.2 |
| CCOC(=O)N1CCN(C(=O)c2ccc3c(Cl)c4c(nc3c2)CCCC4)CC1 | -1.71 |
| COc1ccc(Cc2nc3ccc(C(=O)N(C)C(C)c4nccs4)cc3o2)cc1 (centres unmarked) | 16.5 |
| COCCCN1C(=O)C(=O)/C(=C(/O)c2ccc(OC(C)C)c(C)c2)C1c1ccncc1 (centres unmarked) | 3.05 |
| O=C(N=Nc1c(O)[nH]c2ccc(Br)cc12)c1ccccc1-n1cccc1 | 0.48 |
| COc1ccc(NC(=O)N2CCN(c3nc4ccccc4n3C(C)C)CC2)cc1 | 10.2 |
| CC(OC(=O)C1=Cc2ccccc2OC1)C(=O)NC(C)(C)C (centres unmarked) | 19.7 |
| CCOc1ccc(C(=O)NC(C(=O)NCC(c2cccs2)N(C)C)C(C)C)cc1 (centres unmarked) | 5.72 |
| Cn1c(O)c(C=Nc2cccc(C(F)(F)F)c2)c(=O)n(C)c1=O | 13.2 |
| C=CCSc1nnc(C)n1-c1ccc(Cl)cc1 | 9.72 |
